For this experiment, the target named is T1, CYB1-VP16 fusion protein (Candida albicans CYB1 coding sequence subcloned into pJG4-5) (Candida albicans, UniProt P47829 1-492).
T1 construct: also called Candida cyclin B homolog
T1 sequence: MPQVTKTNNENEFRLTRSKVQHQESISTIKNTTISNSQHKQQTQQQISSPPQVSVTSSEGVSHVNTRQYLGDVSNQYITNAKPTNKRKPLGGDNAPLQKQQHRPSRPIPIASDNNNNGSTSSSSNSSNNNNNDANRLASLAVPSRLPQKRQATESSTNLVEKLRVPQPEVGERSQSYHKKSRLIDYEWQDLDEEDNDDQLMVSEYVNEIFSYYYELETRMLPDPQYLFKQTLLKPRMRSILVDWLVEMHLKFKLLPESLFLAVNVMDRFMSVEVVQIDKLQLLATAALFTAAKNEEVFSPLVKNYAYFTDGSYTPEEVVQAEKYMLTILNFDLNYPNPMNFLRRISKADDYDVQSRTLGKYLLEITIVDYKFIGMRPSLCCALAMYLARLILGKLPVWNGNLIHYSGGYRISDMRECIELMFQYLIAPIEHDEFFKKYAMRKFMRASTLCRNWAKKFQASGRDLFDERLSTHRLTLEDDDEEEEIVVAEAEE
Briefly: interaction trap (yeast two-hybrid) in S. cerevisiae YEG048: CDK1-LexA fusion from pEG202 with CYB1-VP16 fusion from pJG4-5.

B1: CDK1-LexA fusion protein (Candida albicans CDK1 coding sequence subcloned into pEG202) (other)
chain: MVELSDYQRQEKVGEGTYGVVYKALDTKHNNRVVALKKIRLESEDEGVPSTAIREISLLKEMKDDNIVRLYDIIHSDSHKLYLVFEFLDLDLKKYMESIPQGVGLGANMIKRFMNQLIRGIKHCHSHRVLHRDLKPQNLLIDKEGNLKLADFGLARAFGVPLRAYTHEVVTLWYRAPEILLGGKQYSTGVDMWSVGCIFAEMCNRKPLFPGDSEIDEIFRIFRILGTPNEEIWPDVNYLPDFKSSFPQWKKKPLSEAVPSLDANGIDLLDQMLVYDPSRRISAKRALIHPYFNDNDDRDHNNYNEDNIGIDKHQNMQ
notes: also called Candida cyclin-dependent kinase; not shown: LexA portion supplied by vector pEG202
Take B1: the binding result was “binds”.

These data come from patent US20030104362A1 (published 2003).
